From PubChem BioAssay AID1508642 (National Center for Advancing Translational Sciences (NCATS), 2021)
The whole screen tested about 43,000 compounds, of which about 200 (0.47%) were called active. Inconclusive results, whose numbers are uncertain, are shown with a selection of clear calls. Calls follow the shape of the dose curve; as a rule, active = well fitted cell-killing curve with a large enough effect; inconclusive = small, poorly fitted or top-dose-only effect, or effect the other way; inactive = flat fitted curve, though single readings scatter. A potency beside an inconclusive call is a rough fit, not a confirmed value.

Assay: Cell viability qHTS assay in S16 Pmp22-F2sN cells; also: nearly all actives have a fitted effect of over 65% in size
Conditions: S16 Pmp22-F2sN Schwann cells (luciferase reporters placed in the Pmp22 gene) viability, CellTiter-Glo, 24 h; series mostly up to 57.5 µM
Procedure, shortened: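 CellTiter-Glo counter-screen, qHTS, 1536-well. Cells: S16(c9) Pmp22-F2sN, 500-1,000/well in DMEM + 10% FBS. Cpd 23 nL pin transfer, 24 h, 37C/5% CO2. Read: luminescence, CCD imager.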
Potency is read from the fitted curve at half-maximal effect; tags tell the direction and shape of the fitted curve.

Structure (SMILES) | Potency
COc1ccccc1CNC(=O)c1ccc(-c2nc(CS(=O)c3ccc(C)cc3)c(C)o2)cc1 (stereo not given) | inconclusive: 39.8 µM [cytotoxic, single point]
COc1cccc(NC(=O)CCc2nc(-c3ccc(C(C)(C)C)cc3)no2)c1 | inconclusive: 22.4 µM [cytotoxic, partial curve, poor fit]
CCc1ccc(CN(Cc2ccco2)C(=O)COc2ccccc2Cl)cc1 | inconclusive: 39.8 µM [cytotoxic, single point]
COc1ccc(CCNC(=O)c2csc3c2CCCCC3)c(OC)c1 | inconclusive: 39.8 µM [cytotoxic, single point]
Cc1ccc2c(CC(=O)Nc3cccc(C(F)(F)F)c3)coc2c1 | inconclusive: 39.8 µM [cytotoxic, single point]
Cc1ccc(CNC(=O)c2ccc3c(c2)CCN3S(=O)(=O)c2ccccc2)cc1 | inconclusive: 39.8 µM [cytotoxic, partial curve, poor fit]
Cc1oc2ncn(CC(C)C)c(=O)c2c1C(=O)NCCc1ccc(Cl)cc1 | inactive
CCc1c(C)sc2c1CCN(Cc1ccccc1)C2c1ccccc1 (stereo not given) | inconclusive: 8.91 µM [cytotoxic, full curve]
O=C(CCn1cnc2onc(-c3ccc(F)cc3)c2c1=O)Nc1ccc(F)c(Cl)c1 | inconclusive: 39.8 µM [cytotoxic, single point]
CCN(CC)c1cc(C)c2cc(NC(=O)c3cccc(OC)c3OC)ccc2n1 | inconclusive: 3.16 µM [rising, full curve, poor fit]
O=C(COc1ccccc1F)OCc1cc(=O)n2nc(C3CCCCC3)sc2n1 | inconclusive: 25.1 µM [rising, single point]
Cc1ccc2c(c1)N(C(=O)N1CCC(C(=O)NCc3cccc(Br)c3)CC1)CCO2 | inconclusive: 39.8 µM [cytotoxic, single point]
CC(=O)Nc1ccc(NC(=O)c2cc(=O)c3ccccc3o2)cc1 | inconclusive: 8.91 µM [cytotoxic, partial curve, poor fit]
O=C(Nc1ccc(Br)cc1)c1ccc(F)c(S(=O)(=O)NC2CCCCCC2)c1 | inconclusive: 28.2 µM [cytotoxic, single point]
CC(C)Oc1ccc(CNC(=O)CN2C(=O)CCn3nc(-c4cn(C)c5ccccc45)cc32)cc1 | inconclusive: 5.01 µM [rising, partial curve, poor fit]
O=C(Nc1ccc(Oc2ccccc2)cc1)c1ccc(F)c(S(=O)(=O)N2CCN(c3cccc(Cl)c3)CC2)c1 | inconclusive: 39.8 µM [cytotoxic, single point]
Cc1ccc(C)c(N2C(=O)N(Cc3ccccc3C)c3ccccc3S2(=O)=O)c1 | inactive
O=C(Nc1nc2c(Cl)cccc2s1)c1ccc(S(=O)(=O)N2CCc3ccccc32)cc1 | inconclusive: 39.8 µM [cytotoxic, single point]
COc1cccc(-c2nc(S(=O)(=O)c3ccc(C)cc3)c(N3CCCCCC3)o2)c1 | inconclusive: 39.8 µM [cytotoxic, single point]
CC(=O)c1ccc(NC(=O)Nc2ccc3snnc3c2)cc1 | inconclusive: 39.8 µM [cytotoxic, single point]

Structure (SMILES) | Potency
COc1ccc(NC(=O)Cn2cnc3ccc(S(=O)(=O)N4CCC(C)CC4)cc3c2=O)c(OC)c1 | inactive
COc1cccc(CNC(=O)c2ccc(-c3nc(CS(=O)c4ccccc4)c(C)o3)cc2)c1 (stereo not given) | inconclusive: 39.8 µM [cytotoxic, single point]
Cc1ccc(C)c(N2CCN(c3nc4ccccc4c(=O)n3-c3ccc(Cl)cc3)CC2)c1 | inconclusive: 28.2 µM [rising, partial curve, poor fit]
CCc1ccc(CNC(=O)Cn2ccc3cc(S(=O)(=O)N4CCCCCC4)ccc32)cc1 | inconclusive: 17.8 µM [cytotoxic, single point]
CCS(=O)(=O)c1ncc(Cl)c(C(=O)NCc2ccc(OC)cc2)n1 | active: 2.82 µM
CCc1nn(CC(=O)Nc2cccc(C(C)=O)c2)c(=O)c2cc3sccc3n12 | inconclusive: 31.6 µM [cytotoxic, partial curve, poor fit]
Cc1ccccc1CCNC(=O)C1CCN(S(=O)(=O)c2ccc3c(ccn3C)c2)CC1 | inconclusive: 28.2 µM [cytotoxic, partial curve, poor fit]
COc1cc(Nc2ncc3c(n2)CCN(Cc2cccc(C)c2)C3)cc(OC)c1 | inconclusive: 28.2 µM [cytotoxic, single point]
Cn1nnnc1SCCCNCc1cccc(OCc2ccc(F)cc2)c1 | inconclusive: 39.8 µM [cytotoxic, single point]
CCOC(=O)c1c(C)[nH]c(C)c1S(=O)(=O)N(C)CC(=O)Nc1ccc(CC)cc1 | inconclusive: 7.08 µM [rising, partial curve, poor fit]
CC(C)(C)NC(=O)c1oc2ccccc2c1NC(=O)c1ccccc1F | inconclusive: 0.398 µM [rising, full curve, poor fit]
Cc1cc(C)c2c(CC(=O)N(Cc3ccc(Cl)cc3)Cc3ccco3)coc2c1 | inconclusive: 25.1 µM [cytotoxic, partial curve, poor fit]
O=C(C1CCN(S(=O)(=O)c2ccc(Br)s2)CC1)N1CCN(c2cccc(C(F)(F)F)c2)CC1 | inconclusive: 28.2 µM [cytotoxic, single point]
Cc1cc(-n2ccnc(NCCc3ccc(S(N)(=O)=O)cc3)c2=O)ccc1Br | inconclusive: 35.5 µM [cytotoxic, single point]
COc1ccc(-c2onc(C)c2C)cc1S(=O)(=O)N(C)Cc1ccccc1 | inconclusive: 39.8 µM [cytotoxic, single point]
Cc1ccc(-c2cn3ccc(C)cc3n2)cc1 | inactive
COc1ccccc1C(=O)Nc1sc(Nc2ccccc2)nc1C(N)=O | inconclusive: 2 µM [rising, single point]
CCc1ccc(OCCn2c(C3CC(=O)N(Cc4ccc(F)cc4)C3)nc3ccccc32)cc1 (stereo not given) | inconclusive: 39.8 µM [cytotoxic, single point]
CCc1ccc(C2=CC(c3c(F)cccc3Cl)n3c(nc4ccccc43)N2)cc1 (stereo not given) | inconclusive: 28.2 µM [cytotoxic, single point]
CCOC(=O)c1c(C)[nH]c(C)c1S(=O)(=O)N(C)CC(=O)Nc1ccc(C)cc1Br | inconclusive: 3.16 µM [cytotoxic, partial curve, poor fit]

Structure (SMILES) | Potency
CCOC(=O)Cc1ccc(NC(=O)N(Cc2ccc(CC)cc2)Cc2cn[nH]c2-c2ccc(OC)cc2)cc1 | inconclusive: 39.8 µM [cytotoxic, single point]
Cc1ccccc1OCCn1c(CCNC(=O)C2CCCCC2)nc2ccccc21 | inactive
Cc1oc(-c2ccc(Cl)cc2)nc1CN1CCCC(C(=O)NCc2ccccc2)C1 (stereo not given) | inactive
COc1cc(CNCCSc2nnnn2C)cc(Cl)c1OCc1ccccc1 | inconclusive: 22.4 µM [cytotoxic, single point]
Cc1nc(SCCOc2ccccc2F)[nH]c(=O)c1Cc1ccccc1 | inconclusive: 0.0355 µM [rising, full curve, poor fit]
CCOc1ccc(NC(=O)c2oc3ccccc3c2NC(=O)c2ccc(OC)cc2OC)cc1 | inconclusive: 3.55 µM [rising, full curve, poor fit]
CCc1c(C)nc2nncn2c1NCc1ccc(Cl)cc1 | inconclusive: 1.78 µM [cytotoxic, partial curve, poor fit]
COc1ccc(Cl)cc1NC(=O)c1c(NCc2cccnc2)sc2c1CCC(C)C2 (stereo not given) | inconclusive: 39.8 µM [cytotoxic, single point]
COCCCNC(=O)c1ccc(Cn2c(=O)c3ccccc3n(Cc3c(C)cc(C)cc3C)c2=O)cc1 | inactive
Cc1ccc(NC(=O)CC2Nc3ccccc3NC2=O)cc1C (stereo not given) | inconclusive: 39.8 µM [cytotoxic, single point]
CCOc1ccc(NC(=O)c2cc(S(=O)(=O)NC3CCCCCC3)ccc2F)cc1 | inconclusive: 39.8 µM [cytotoxic, single point]
COc1ccc2c(c1)CCc1c(C(=O)Nc3c(C)nn(Cc4ccccc4)c3C)noc1-2 | inconclusive: 28.2 µM [cytotoxic, single point]
O=C1CN(C(=O)COc2ccc(Cl)cc2Cl)C(c2ccccc2)c2cc(F)ccc2N1 (stereo not given) | inconclusive: 39.8 µM [cytotoxic, single point]
CCOc1ccccc1CNC(=O)CCCn1ccc2cc(S(=O)(=O)N3CCCC3)ccc21 | inconclusive: 25.1 µM [cytotoxic, single point]
Oc1ccc(NCc2ccccc2OCc2ccc(Cl)cc2)cc1 | active: 20 µM
COC(=O)c1ccccc1NC(=O)N1CCC(N2CCN(Cc3ccc(F)cc3)C(=O)C2=O)CC1 | inconclusive: 39.8 µM [cytotoxic, single point]
O=C(Cc1ccc(-c2ccccc2)cc1)NCCS(=O)(=O)N1CCN(c2ccccc2)CC1 | inactive
O=C(CSc1nc(-c2ccc(F)cc2)[nH]c1-c1ccc(F)cc1)Nc1ccc2c(c1)OCO2 | inconclusive: 39.8 µM [cytotoxic, single point]
COc1cc(NC(=O)CSc2ccc(-c3ccccn3)nn2)cc(OC)c1 | inactive
O=C(NCCCN1CCOCC1)c1ccc2c(c1)N(Cc1cccc(Cl)c1)C(=O)c1ccccc1S2 | inconclusive: 39.8 µM [cytotoxic, single point]
